Data taken from patent US10669314B2, “Polypeptide” (Affibody AB, priority 2014, dated 2020).

Target: hIL-6/hIL-6Rα interaction with hgp130 (Homo sapiens, UniProt P05231)
Assay: Competition ELISA: blocking of binding of the hIL-6/hIL-6Rα complex to hgp130
Details: Example 7
Protocol: In this experiment, half area 96-well ELISA plates were coated with Fc-fused hgp130 (hgp130-Fc) at a concentration of 4 μg/ml. Plates were incubated overnight at 4° C. and then washed twice in tap water. Next, the plates were blocked for 1 h in PBSC. Plates were incubated for 1.5 h at RT and then washed 4 times with 200 μl 0.05% Tween/PBS. In separate plates, serial dilutions (concentration range 500-0.5 nM) of the 13 His6-tagged Z variant polypeptides were titrated with fixed concentration of hIL-6/hIL-6Rα (0.5 nM and 5 nM, respectively).
Plates were incubated for 1.5 h and then washed 4 times. A biotinylated anti-IL-6Rα antibody (R&D Systems) was added and the plates were incubated for another 1.5 h followed by washing. A 1:8000 dilution of streptavidin-HRP (Thermo Scientific) was added and the plates were incubated for 1 h. Next, plates were washed four times and TMB substrate (Thermo Scientific) was added for 15 min before the reaction was stopped with 2 M H2SO4. The absorbance was measured at 450 nm using a microplate reader (Victor^3, Perkin Elmer).

Chain of hIL-6/hIL-6Rα interaction with hgp130 (P05231 29-212): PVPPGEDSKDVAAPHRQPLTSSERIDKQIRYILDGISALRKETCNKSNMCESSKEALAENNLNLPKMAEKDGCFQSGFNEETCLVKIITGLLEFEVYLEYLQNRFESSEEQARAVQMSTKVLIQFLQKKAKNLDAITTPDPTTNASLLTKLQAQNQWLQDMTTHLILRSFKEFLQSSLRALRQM
Chain of hIL-6/hIL-6Rα interaction with hgp130 (P08887 20-358 partner limits assumed): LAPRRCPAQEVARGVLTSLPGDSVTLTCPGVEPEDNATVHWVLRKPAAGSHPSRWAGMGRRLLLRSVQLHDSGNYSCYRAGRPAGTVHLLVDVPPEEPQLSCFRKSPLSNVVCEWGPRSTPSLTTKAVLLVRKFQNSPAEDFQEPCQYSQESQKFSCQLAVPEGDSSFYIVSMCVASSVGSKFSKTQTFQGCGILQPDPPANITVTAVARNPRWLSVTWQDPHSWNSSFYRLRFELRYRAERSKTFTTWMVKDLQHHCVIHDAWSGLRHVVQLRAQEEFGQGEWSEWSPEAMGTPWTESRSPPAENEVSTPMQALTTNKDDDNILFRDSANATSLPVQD

blocking of the interaction between preformed hIL-6/hIL-6Rα complexes and hgp130: Concentration dependent blocking
Substance: Z06814: primary IL-6 binding Z variant, SEQ ID NO:1512 (VDAKYAKEEQRAWREIHLLPNLTIEQMAAFIWKLLDDPSQSSELLSEAKKLNDSQAPK; Engineered IL6 binding polypeptide)
